From paper PMC9969854
Results are given in words; binding and its absence hold for the method and conditions named. For part of these data: In cells and extracts the contact can be indirect. Some entries that bind do so weakly or less than the wild type.

What was measured:
[1] = molecular target: T1, OsYABBY1 (rice (Oryza sativa)) (UniProt Q7XIM7); assay: two-hybrid; OsYABBYs as bait in pGBKT7, OsWOX3A or OsWUS as prey in pGADT7; yeast AH109; growth on SD/-Leu/-Trp/-His/-Ade medium
T1 sequence: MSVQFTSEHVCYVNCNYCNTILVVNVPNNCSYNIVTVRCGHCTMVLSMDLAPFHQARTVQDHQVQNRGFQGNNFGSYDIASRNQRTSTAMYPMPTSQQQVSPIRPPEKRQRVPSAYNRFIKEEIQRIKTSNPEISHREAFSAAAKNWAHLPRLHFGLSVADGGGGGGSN

[2] = molecular target: T2, OsYABBY2 (rice (Oryza sativa)) (UniProt Q10FZ7); assay: as above
T2 sequence: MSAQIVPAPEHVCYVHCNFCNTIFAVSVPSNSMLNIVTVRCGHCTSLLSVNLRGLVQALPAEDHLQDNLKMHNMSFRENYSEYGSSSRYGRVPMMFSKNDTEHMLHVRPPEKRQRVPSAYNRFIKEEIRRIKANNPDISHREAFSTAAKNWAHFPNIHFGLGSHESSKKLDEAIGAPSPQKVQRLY

[3] = molecular target: T3, OsYABBY3 (rice (Oryza sativa)) (UniProt Q8L556); assay: as above
T3 sequence: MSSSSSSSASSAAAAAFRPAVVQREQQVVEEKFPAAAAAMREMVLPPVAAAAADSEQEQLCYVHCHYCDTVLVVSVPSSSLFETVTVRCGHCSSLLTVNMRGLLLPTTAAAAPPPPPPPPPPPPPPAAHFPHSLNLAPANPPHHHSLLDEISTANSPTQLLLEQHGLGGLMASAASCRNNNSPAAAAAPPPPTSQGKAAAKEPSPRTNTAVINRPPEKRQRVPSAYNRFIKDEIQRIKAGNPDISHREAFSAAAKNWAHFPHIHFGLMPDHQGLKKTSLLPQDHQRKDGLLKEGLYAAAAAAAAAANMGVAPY

[4] = molecular target: T4, OsYABBY5 (rice (Oryza sativa)) (UniProt Q0JBF0); assay: as above
T4 sequence: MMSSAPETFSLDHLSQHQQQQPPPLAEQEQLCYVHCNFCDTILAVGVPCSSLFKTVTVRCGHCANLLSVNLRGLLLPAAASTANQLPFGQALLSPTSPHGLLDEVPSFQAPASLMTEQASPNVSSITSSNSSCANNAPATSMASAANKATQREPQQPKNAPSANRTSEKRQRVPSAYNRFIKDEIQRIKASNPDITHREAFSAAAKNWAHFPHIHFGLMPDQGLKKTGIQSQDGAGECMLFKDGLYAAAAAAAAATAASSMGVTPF

[5] = molecular target: T5, OsYABBY4 (rice (Oryza sativa)) (UniProt Q6H668); assay: as above
T5 sequence: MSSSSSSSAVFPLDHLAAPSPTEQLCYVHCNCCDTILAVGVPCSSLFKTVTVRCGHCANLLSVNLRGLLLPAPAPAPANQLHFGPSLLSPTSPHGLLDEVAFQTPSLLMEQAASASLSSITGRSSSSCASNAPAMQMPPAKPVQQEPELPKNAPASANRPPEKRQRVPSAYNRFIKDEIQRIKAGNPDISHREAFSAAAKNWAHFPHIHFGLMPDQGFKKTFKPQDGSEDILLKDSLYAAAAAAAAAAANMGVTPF

[6] = molecular target: T6, OsYABBY6 (rice (Oryza sativa)) (UniProt Q2QM17); assay: as above
T6 sequence: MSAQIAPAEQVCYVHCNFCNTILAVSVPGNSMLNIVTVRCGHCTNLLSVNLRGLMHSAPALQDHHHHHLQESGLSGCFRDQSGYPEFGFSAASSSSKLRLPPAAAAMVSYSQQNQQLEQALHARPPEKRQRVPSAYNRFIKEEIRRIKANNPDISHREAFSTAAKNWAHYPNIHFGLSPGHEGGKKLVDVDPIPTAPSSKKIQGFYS

[7] = molecular target: T1, OsYABBY1 (rice (Oryza sativa)); assay: split reporter; luciferase complementation imaging (LCI): OsYABBY in the N-luc vector, partner in the C-luc vector, expressed together in Nicotiana benthamiana; bioluminescence detected by Tanon5200
[8] = molecular target: T2, OsYABBY2 (rice (Oryza sativa)); assay: as above
[9] = molecular target: T3, OsYABBY3 (rice (Oryza sativa)); assay: as above
[10] = molecular target: T4, OsYABBY5 (rice (Oryza sativa)); assay: as above
[11] = molecular target: T5, OsYABBY4 (rice (Oryza sativa)); assay: as above
[12] = molecular target: T6, OsYABBY6 (rice (Oryza sativa)); assay: as above

- binding [1]: no binding
- binding [2]: no binding
- binding [3]: binds
- binding [4]: binds
- binding [5]: no binding
- binding [6]: no binding
- binding [7]: no binding
- binding [8]: no binding
- binding [9]: binds
- binding [10]: binds
- binding [11]: no binding
- binding [12]: no binding
B1: OsWUS (protein, UniProt Q7XM13 1-289)
chain: MDHMQQQQRQQVGGGGGEEVAGRGGVPVCRPSGTRWTPTTEQIKILRELYYSCGIRSPNSEQIQRIAAMLRQYGRIEGKNVFYWFQNHKARERQKKRLTTLDVTTTTAAAADADASHLAVLSLSPTAAGATAPSFPGFYVGNGGAVQTDQANVVNWDCTAMAAEKTFLQDYMGVSGVGCAAGAAPTPWAMTTTTREPETLPLFPVVFVGGDGAHRHAVHGGFPSNFQRWGSAAATSNTITVQQHLQQHNFYSSSSSQLHSQDGPAAGTSLELTLSSYYCSCSPYPAGSM
